Measurements reported in PMC12040169 (PLOS Biology, 2025).
This is one part of the list.

Tested on: T1, C. trachomatis L2/434/Bu expressing GFP (CTL2-GFP)
T1 construct: L2/434/Bu GFP intracellular growth in HeLa cells
Parameters: species or system HeLa; C. trachomatis total inclusion area by high-content imaging, normalised to DMSO
Conditions: total inclusion area; 28.5 h, 10 µM; inhibitor
Method in brief: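 Post-fluorescence-read fixation, DNA staining with Hoechst and high-content imaging; GFP inclusion area and number per well, and nuclei counts, used as proxies for bacterial growth and host viability.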

SMILES | % of control remaining
COc1cccc(-c2nc(CC(=O)N3CCC(C(=O)O)CC3)cs2)c1 [CBK286797] | 96.4594
CC(=O)c1cc2c(cc1NC(=O)CSc1ccccn1)OCO2 [CBK266225] | 114.61
O=C(CN1CCOCC1)Nc1ccc(S(=O)(=O)N2CCCC2)cc1 [CBK268468] | 103.017
Cc1ccc(CN(CC(=O)N2CCC(C(N)=O)CC2)S(=O)(=O)c2ccc(Br)cc2)cc1 [CBK265813] | 126.415
O=C(Nc1ccccc1-c1nc2ccccc2[nH]1)c1ccc(S(=O)(=O)N2CCCC2)cc1 [CBK263252] | 61.0239
Cc1ccccc1-c1cncc(C2CCN(C(=O)CCOc3ccccc3)CC2)n1 [CBK286154] | 112.813
CCOC(=O)c1ccc(S(=O)(=O)N2CCCCC2)cc1 [CBK069738] | 89.421
c1coc(-c2ccc(Nc3ccc4c(c3)OCCO4)nc2)c1 [CBK037765] | 97.0811
N#CCCN(CCc1ccccc1)S(=O)(=O)c1cccc2nsnc12 [CBK261138] | 98.9153
Cc1cc(NC(=O)COc2ccccc2)nc2c1c(=O)oc1ccccc12 [CBK287436] | 95.7869
CCCC(=O)c1ccc(S(=O)(=O)N2CCCN(Cc3c(-c4ccccc4)nc4sccn34)CC2)cc1 [CBK062912] | 79.4692
COc1ccc(F)c(CN(CC2CCNCC2)C(=O)Nc2ccccc2C(F)(F)F)c1 [CBK049805] | 113.289
COc1ccccc1NC(=O)CN1CCN(CCC(=O)c2ccc(C(C)C)cc2)CC1 [CBK023925C] | 73.1147
CCOC(=O)c1sc2cccc(F)c2c1COC(=O)c1ccc(CNC(N)=O)cc1 [CBK297873] | 105.147
CCOC(=O)C1=C(C)N(c2ccc(C(=O)O)cc2)C(=O)NC1c1ccc(OC(F)F)c(OC)c1 (stereo not drawn) [CBK297878] | 58.9918
CCN1C(=O)C2(CC(=O)N(CCc3cccc(OC)c3)C2=O)c2cc(C)ccc21 (stereo not drawn) [CBK075195] | 87.1866
O=C(CS(=O)(=O)c1cc2c(N3CCNCC3)nccc2s1)c1ccc(N2CCCC2)cc1 [CBK042232C] | 96.1401
CC(=O)N1C[C@@H]2CCCCN(CCOc3ccccc3)[C@@H]2C1 [CBK285494] | 80.4302
COCCN(Cc1ccncc1)C(=O)c1cc(C(C)C)n2ncnc2n1 [CBK306983] | 42.3617
CC(=O)N1CCC(C(=O)NC(=O)NCc2ccc(F)cc2)CC1 [CBK034834] | 107.153

SMILES | % of control remaining
CCc1cc2c(=O)c(-c3nc(C)cs3)c(CCC(=O)O)oc2cc1O [CBK264838] | 104.031
CC1CCc2c(sc3ncnc(OCC(=O)N(C)CCC#N)c23)C1 (stereo not drawn) [CBK304976] | 73.1737
C=CCSc1nnc(-c2ccccc2NC(=O)CC)c(O)n1 [CBK266411] | 101.45
Cn1c(/N=C(\C=N\c2cc(=O)n(C)c(=O)n2C)c2ccccc2)cc(=O)n(C)c1=O [CBK303237] | 79.4271
CCc1csc(C(=Cc2ccc(OC)cc2)C(N)=O)n1 [CBK001010] | 98.4453
Brc1ccccc1OCCc1ccccc1 [CBK004519] | 65.4275
CCCCC(=O)N1CC(n2nc(-c3ccccc3)ccc2=O)C1 [CBK284615] | 137.119
CCN1CCC2(C/C=C/CNC(=O)c3ccccc3OCCN(C)C2=O)CC1 [CBK292061] | 87.7409
O=C(O)CC1CCN(c2ccc(C(F)(F)F)cn2)CC1 [CBK286850] | 86.3232
CCc1ccc(-c2csc(NC(=O)CN3C(=O)CCC3=O)n2)cc1 [CBK287347] | 120.55
CC(=O)Nc1ccc(CN2C[C@@H]3OCC(=O)N(C)[C@@H]3C2)cc1 [CBK289240] | 109.447
O=C(NCCc1ccccc1)c1ncoc1-c1cccs1 [CBK283662] | 56.8871
CC(C)(C)NS(=O)(=O)c1cccc2nonc12 [CBK265569] | 107.136
CC(=O)Nc1ccc(S(=O)(=O)N2CCN(Cc3ccc([N+](=O)[O-])cc3)CC2)cc1 [CBK264231G] | 111.81
COc1ccc(C2C(C(=O)c3ccc(Cl)cc3)=C(O)C(=O)N2CCN(C)C)cc1OC (stereo not drawn) [CBK264660] | 116.08
COc1ccccc1CN(C)C(=O)CCc1ccc(S(N)(=O)=O)cc1 [CBK304585] | 64.0577
Clc1ccccc1-c1cn2ccnc2c(NCc2cccnc2)n1 [CBK038039] | 93.7046
COc1ccc(S(=O)(=O)Nc2ccc(C)cc2)cc1C(=O)Nc1ccc(C)cc1 [CBK265172] | 96.3668
CS(=O)(=O)Nc1cccc(C2=NN(S(=O)(=O)c3ccc(Cl)cc3)C(c3ccccc3F)C2)c1 (stereo not drawn) [CBK268762] | 85.3538
